Test results: PubChem BioAssay (NCATS)
Several values for one entry are separate records, joined by “and”; a condition that tells them apart may be missing. Equal values may be shown once. This list was built around the results that the source calls inconclusive (neither active nor inactive); the mix of calls is not that of the screen. Potencies of inconclusive entries are left out as doubtful fits. Activity calls are given as the source filed them. Calls come from the whole dose curve; as a rule, active = well fitted cell-killing curve with a large enough effect; inconclusive = small, poorly fitted or top-dose-only effect; inactive = no such curve, though single readings can be large or run the other way.

Test: qHTS of pediatric cancer cell lines to identify multiple opportunities for drug repurposing: Primary screen for SK-N-MC cells (AID 1347093)
Conditions: SK-N-MC viability, CellTiter-Glo luminescence, 48 h; activity change, negative = cytotoxic: at 46 µM (top of the series)
Description: Drug repurposing or repositioning has been offered as a strategy for drug development in oncology programs. This approach has special potential for childhood cancers and other rare or orphan diseases, where the expected return on new drug development has been a disincentive to pharmaceuticals.
In this project we exploit the poly-pharmacology of drugs to discover new indications via phenotypic screening of a panel of 19 well-characterized cell lines derived from solid tumors seen in children and adolescents. The goal is to identify approved drugs with previously unrecognized anticancer properties that has the potential to reveal new mechanisms and biological processes involved in carcinogenesis or drug resistance. We employed a titration-based paradigm (quantitative high-throughput screening or qHTS), where all compounds were tested at multiple concentrations for their effect on cell viability. Concentration-response curves (CRCs) were derived directly from the primary screen, and both potency and efficacy values were used to identify compounds with robust bioactivity profiles. We screened the NIH Chemical Genomics Center (NCGC) Pharmaceutical Collection (NPC) and Mechanism Interrogation Plate (MIPE) small molecule collections of approved and investigational compounds against these cell lines; and measured metabolically active cells after 48 hours of compound treatment as a proxy for cell viability.
Assay Submitter: Nathalia J. Martinez, National Center for Advancing Translational Sciences, National Institutes of Health, Rockville, MD, USA; email: natalia.martinez@nih.gov
[1] Shen, M et al. Quantitative high-throughput phenotypic screening of pediatric cancer cell lines identifies multiple opportunities for drug repurposing. Oncotarget 2017 Dec 19;9(4):4758-4772. PMID 29435139.
The cells were obtained from University of North Carolina (UNC), Pediatric Preclinical Testing Program (PPT), and Coriell Institute (CI).
qHTS cell viability assay:
Cells were assayed in growth media at a density of 500-1,000 cells/well. Five microliters of cells were dispensed into 1,536-well, white, solid-bottom, TC-treated plates (Greiner Bio One) using a multidrop dispenser and incubated at 37 degrees C, 5% CO2, under a humidified atmosphere for 5 hours. Twenty-three nanoliters of compounds and controls (neutral control DMSO or positive control bortezomib at final concentration of 2.3 µM) were subsequently transferred by Kalypsys pintool. For primary screens, the MIPE collection was tested at 11-point dilutions (final concentrations range from 0.78 nM to 46 µM) and the NPC collection at 8-point dilutions (final concentrations range from 0.59nM to 46 µM). Compounds tested in follow-up screens were assayed at 11-point dilutions. Cells were incubated for 48 hours, followed by addition of 3 uL of CellTiter-Glo (Promega). After a 15 min incubation at room temperature, samples were analyzed for luminescence intensity using a ViewLux High-throughput CCD imager equipped with clear filters.
Potency is the fitted concentration of half-maximal effect; tags give direction and shape of the fitted curve.

Row | SMILES | Potency | activity change, negative = cytotoxic
1 | CC/C=C(\C(=O)N[C@@H]1C(=O)N2C(C(=O)OCOC(=O)C(C)(C)C)=C(COC(N)=O)CS[C@H]12)c1csc(N)n1 | inactive | –
2 | CCCCN(CCCC)CC(O)c1cc(Cl)cc2c1-c1ccc(Cl)cc1/C2=C/c1ccc(Cl)cc1 (stereo not given) | – | inactive: -20.1%
3 | Cc1nc2sccn2c(=O)c1CCN1CCC(=C(c2ccc(F)cc2)c2ccc(F)cc2)CC1 | inconclusive [cytotoxic, single point] | –
4 | Nc1nc(N)c(N=O)c(OCC2CCCCC2)n1 | active: 3.32 µM | –
5 | O=C1[C@H](CC[C@H](O)c2ccc(F)cc2)[C@@H](c2ccc(O)cc2)N1c1ccc(F)cc1 | inconclusive [cytotoxic, single point] | –
6 | CCCCCC=CCC=CCCCCCCCC(=O)OCC | inconclusive [cytotoxic, single point] | –
7 | CC1=C(C)C(=O)C(CCCCC#CCCCC#CCO)=C(C)C1=O | inconclusive [cytotoxic, single point] | –
8 | Cc1cccc(N(C)C(=S)Oc2ccc3c(c2)C2CCC3C2)c1 (stereo not given) | inconclusive [cytotoxic, partial curve, poor fit] | –
9 | c1ccc(C(O[C@H]2CCCN(CCc3ccc4c(c3)OCO4)C2)c2ccccc2)cc1 | inconclusive [cytotoxic, single point] | –
10 | COc1ccc2c(c1)C(=O)N(CCc1ccc(S(=O)(=O)NC(=O)NC3CCCCC3)cc1)C(=O)C2(C)C | inconclusive [cytotoxic, partial curve, poor fit] | –
11 | CC(C)=CCNc1ncnc2c1ncn2[C@@H]1O[C@H](CO)[C@@H](O)[C@H]1O | active: 3.76 µM | –
12 | Cc1ccc(CCn2c3c(c4cc(Cl)ccc42)CN(C)CC3)cn1 | inconclusive [cytotoxic, single point] | –
13 | CC(C)Cn1cnc2c(N)nc3ccccc3c21 | inconclusive [cytotoxic, partial curve, poor fit] | –
14 | C[C@]12CCC(=O)C=C1C=C[C@@H]1[C@@H]2CC[C@@]2(C)[C@H]1CC[C@@]21CCC(=O)O1 | inconclusive [cytotoxic, partial curve, poor fit] | –
15 | CCC(=C(c1ccccc1)c1ccc(OCCN(C)C)cc1)c1ccccc1 | inconclusive [cytotoxic, single point] | –
16 | CCCCCCCC/C=C\CCCCCCCC(=O)NCc1ccc(O)c(OC)c1 | inconclusive [cytotoxic, partial curve, poor fit] | –
17 | CC(C)(c1ccc(O)cc1)c1ccc(O)cc1 | inconclusive [cytotoxic, single point] | –
18 | C=C[C@@]1(C)CC(=O)[C@]2(O)[C@@]3(C)[C@@H](O)CCC(C)(C)[C@@H]3[C@H](O)[C@H](OC(C)=O)[C@@]2(C)O1 | – | inactive: 12.4%
19 | CC(=O)Nc1ccn(C2COC(COC(=O)c3ccccc3)O2)c(=O)n1 (stereo not given) | active: 0.75 µM | –
20 | CC(C)N=C(N)/N=C(\N)Nc1ccc(Cl)cc1 | inconclusive [cytotoxic, single point] | –

Row | SMILES | Potency | activity change, negative = cytotoxic
21 | CC(C)c1cc(C(=O)N2Cc3ccc(CN4CCN(C)CC4)cc3C2)c(O)cc1O | active: 0.332 µM | –
22 | CC(=O)NC(Cc1ccccc1)C(=O)O (stereo not given) | – | inactive: -20%
23 | O=C(CCCN1CCC(O)(c2ccc(Br)cc2)CC1)c1ccc(F)cc1 | – | inactive: -34.4%
24 | O=C(OCC(O)CO)c1ccccc1Nc1ccnc2c(C(F)(F)F)cccc12 (stereo not given) | inconclusive [cytotoxic, single point] | –
25 | C[C@]12CCC(=O)C=C1[C@@H]1C[C@@H]1[C@H]1[C@@H]3[C@@H]4C[C@@H]4[C@@]4(CCC(=O)O4)[C@@]3(C)CC[C@@H]12 | inconclusive [cytotoxic, single point] | –
26 | Cc1cnc(Nc2ccc(CN3CCOCC3)cc2)nc1Nc1cccc(S(=O)(=O)NC(C)(C)C)c1 | active: 0.833 µM | –
27 | CN[C@H]1CC[C@@H](c2ccc(Cl)c(Cl)c2)c2ccccc21 | inconclusive [cytotoxic, single point] | –
28 | O=C(Cc1ccc(-c2ccc(OCCN3CCOCC3)cc2)cn1)NCc1ccccc1 | active: 0.0264 µM | –
29 | NCC(=O)O | inconclusive [cytotoxic] | –
30 | CN1CCN(C2=Nc3ccccc3Oc3ccc(Cl)cc32)CC1 | – | inactive: -29.4%
31 | O=C1C(CCS(=O)c2ccccc2)C(=O)N(c2ccccc2)N1c1ccccc1 (stereo not given) | – | inactive: -15.7%
32 | CCCC(=O)c1cc(O)c(O)cc1O | inconclusive [cytotoxic, partial curve, poor fit] | –
33 | Cc1cccc(N(C)C(=S)Oc2ccc3c(c2)CCC3)c1 | inconclusive [cytotoxic, partial curve, poor fit] | –
34 | COc1cc2ncnc(Nc3ccc(F)c(Cl)c3)c2cc1OCCCN1CCOCC1 | active: 1.91 µM and active: 26.6 µM | –
35 | Cc1nc2ccccn2c(=O)c1CCN1CCC(C(=O)c2ccc(F)cc2)CC1 | inconclusive [cytotoxic, full curve, poor fit] | –
36 | COC1=CC(=O)C[C@@H](C)[C@]12Oc1c(Cl)c(OC)cc(OC)c1C2=O | inconclusive [cytotoxic, single point] | –
37 | CN1CCCCC1CCN1c2ccccc2Sc2ccc(S(C)=O)cc21 (stereo not given) | – | inactive: -13.8%
38 | O=C(O)/C=C(\CC(=O)O)C(=O)O | – | inactive: -2.97%
39 | COc1cc(=C2C=c3ccccc3=N2)[nH]c1=Cc1[nH]c(C)cc1C | active: 3.72 µM | –
40 | Cc1ccc(Cl)c(Nc2ccccc2C(=O)O)c1Cl | inconclusive [cytotoxic, single point] | –
